Assay results taken from PubChem BioAssay AID1347120 (National Center for Advancing Translational Sciences (NCATS), 2019).
The whole screen tested about 390,000 compounds, of which about 930 (0.24%) were called active. The shares of active, inactive and inconclusive entries below differ from those in the screen. Calls come from the whole dose curve; as a rule, active = well fitted activation curve with a large enough effect; inconclusive = small, poorly fitted or top-dose-only effect; inactive = no such curve, though single readings can be large or run the other way. Potencies of inconclusive entries are doubtful fits and often do not repeat.

Assay: qHTS for Suppressors of FUS Proteinopathy: Primary screen using FUS-linked yeast assay; note: nearly all actives have a fitted effect of over 55% in size
Conditions: S. cerevisiae FUS-expressing, OD600, 24 h; Potency: growth rescue; series mostly up to 76.6 µM
Summary of the method: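 Yeast FUS proteinopathy model; galactose-induced FUS (2%), starting OD 0.005. Cpds in dilution series, 24hr, 30C, 99% humidity. Abs 600 nm growth. Pos ctrl CP55940 (top 92uM final); neg ctrl DMSO.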
Potency is the fitted concentration of half-maximal effect; tags give direction and shape of the fitted curve.

Compound	Potency
O=C(NCC(=O)N1CCN(C(c2ccccc2)c2ccccc2)CC1)c1ccccc1Br	inconclusive: 20 µM [activator, partial curve]
CCOC(=O)C1CCCN(C(=O)c2cccc(NC(=O)c3nsc4ccccc34)c2)C1 (stereo not drawn)	inconclusive: 22.4 µM [activator, single point]
O=C(CSc1nnc(CNC(=O)c2ccccc2F)n1-c1ccccc1)Nc1ccccc1F	inactive
Cc1cccc(C)c1NC(=O)CNC(=O)C(NC(=O)c1ccc(C(C)(C)C)cc1)C(C)C (stereo not drawn)	inactive
Cc1ccc(S(=O)(=O)c2cnc(SC(C)C(=O)Nc3ccccc3)[nH]c2=O)cc1 (stereo not drawn)	inactive
COc1ccc(NS(=O)(=O)c2ccc(OC)c(NC(=O)CNC(=O)c3ccc(OC)cc3)c2)cc1	inconclusive: 50.1 µM [activator, single point]
COc1ccc2c(c1)c1c(c(=O)n(-c3ccc(C)cc3)c(=O)n1CC(=O)N1CCCC1)n2C	inactive
CCOC(=O)[C@@H]1[C@H]2COc3ccc(Br)cc3[C@@H]2N2C(=O)N(c3cccc(Cl)c3)C(=O)[C@@]12C	inconclusive: 11.2 µM [activator, partial curve]
CC1CCN(C2=C(NS(=O)(=O)c3ccc(Cl)cc3)C(=O)c3ccccc3C2=O)CC1	inactive
CCCOc1cccc(C(=O)NCCNC(=O)c2cnccn2)c1	inactive
COc1cccc(OC)c1C(=O)Nc1ccc(C)cc1C(=O)c1ccccc1	inactive
COc1ccc(CN2CC(=O)N3[C@H]4c5ccccc5OC[C@@H]4[C@H](c4ccccc4)[C@]3(C)C2=O)cc1	inconclusive: 20 µM [activator, single point]
CC(C)(C)Nc1nc(-c2ccc3c(c2)CCN3C(=O)C2CC2)cs1	inconclusive: 35.5 µM [activator, partial curve, poor fit]
Cc1ccc(C(=O)CCNc2ccc(F)c(Cl)c2)o1	inactive
Cc1ccc2cc(CN(Cc3nnnn3C3CCCCC3)CC3CCCO3)c(=O)[nH]c2c1 (stereo not drawn)	inconclusive: 31.6 µM [activator, partial curve, poor fit]
COC(=O)[C@]1(C)CCC[C@@]2(C)C3CC[C@@]4(C)C[C@]3(CCC21)CC(=O)N4Cc1ccc(OC)cc1 (stereo partly drawn)	inconclusive: 50.1 µM [activator, single point]
Cc1ccc(-n2ncc(C(=O)Nc3ccc4c(c3)OCCO4)c2C2CCN(C(=O)OC(C)(C)C)CC2)cc1	inactive
COc1ccc(OC)c(-c2csc(NC(=O)Cn3[nH]c(=O)c4ccccc4c3=O)n2)c1	active: 39.8 µM
CCOC(=O)c1c(C)[nH]c(C)c1S(=O)(=O)N1CCCC(C(=O)Nc2ccccc2OCC)C1 (stereo not drawn)	inactive
Cc1ccc(-n2c(SCC(=O)Nc3ccccc3-c3ccccc3)nnc2-c2cccnc2)cc1	inconclusive: 20 µM [activator, partial curve, poor fit]
CCCn1c(SCc2nc(-c3cc(OC)ccc3OC)no2)nnc1-c1ccc(Cl)cc1	inconclusive: 31.6 µM [activator, single point]

Compound	Potency
COc1cc(NS(=O)(=O)c2ccc(N/C=C(\C=O)c3nc4ccccc4o3)cc2)nc(OC)n1	inconclusive: 31.6 µM [activator, partial curve, poor fit]
CC1CCN(c2ccc(C(=O)O)cc2NS(=O)(=O)c2ccccc2[N+](=O)[O-])CC1	inactive
CCOC(=O)C1CCN(C2=NC(=O)/C(=C/c3ccc(OC)c(OC)c3)S2)CC1	inactive
CCCC#Cc1ccc(CC[C@H]2O[C@H]3CC[C@@H](CO)O[C@H]3C[C@H]2NC(=O)CN2CCOCC2)cc1	inconclusive: 35.5 µM [activator, single point]
Cc1ccc(-c2nnn3c2nc(Cl)c2ccccc23)cc1	inactive
COc1ccc(OC)c(NC(=O)c2ccccc2NS(=O)(=O)c2cccc3cccnc23)c1	inconclusive: 35.5 µM [activator, single point]
CCN1CCCC1CN=Cc1c(O)n(-c2ccccc2)c(=O)c2ccccc12 (stereo not drawn)	inconclusive: 22.4 µM [activator, partial curve, poor fit]
CCOc1cc(N2CCOCC2)c(OCC)cc1NC(=O)c1c(-c2ccccc2Cl)noc1C	inconclusive: 25.1 µM [activator, single point]
O=C(O)c1ccc(N/N=C2/CCSc3ccc(F)cc32)cc1	inactive
N#CCC1c2ccccc2CCN1C(=O)Nc1ccc(C(F)(F)F)cc1 (stereo not drawn)	inconclusive: 15.8 µM [activator, partial curve, poor fit]
Cc1ccc(NS(=O)(=O)c2ccc3c(c2)NC(=O)CCS3)cc1C	inconclusive: 11.2 µM [activator, partial curve, poor fit]
NC(=O)c1c(NC(=O)c2ccc(N3C(=O)CCC3=O)cc2)sc2c1CCCC2	inconclusive: 35.5 µM [activator, single point]
COc1ccc(-c2nc3ccccc3o2)cc1NC(=O)C(C)Oc1ccc(Cl)cc1Cl (stereo not drawn)	inactive
CN(C(=O)[C@@H]1CC=C[C@@H]2CCN(C3CCCCC3)C(=O)[C@@H]21)c1ccccc1	inactive
CCCSc1ncc(Cl)c(C(=O)N(Cc2ccc(N(C)C)cc2)C2CCS(=O)(=O)C2)n1 (stereo not drawn)	inconclusive: 35.5 µM [activator, partial curve]
CCCCCCCCN1C(=O)[C@@H](CC(=O)NCCCCc2ccccc2)C[C@@]2(C(=O)OC)C1=C[C@H](COCc1ccccc1)O[C@@H]2C	inconclusive: 6.31 µM [activator, partial curve]
CCCn1c(NC(=O)C2CCN(C(=O)c3ccccc3C)CC2)nc2ccccc21	inactive
COc1cccc(NC(=O)CSc2nc(O)c(C)c(=O)n2-c2ccc(C)cc2)c1	inconclusive: 50.1 µM [activator, single point]
CCOC(=O)c1c(C)n(CC(O)c2ccccc2)c2ccc(O)cc12 (stereo not drawn)	inactive
COc1cccc(NC(=O)CSc2nccn(-c3ccc4c(c3)OCCO4)c2=O)c1	inconclusive: 14.1 µM [activator, partial curve, poor fit]
CN(C(=O)c1cccc(NC(=O)Cc2ccc(NC(=O)C3CCN(S(=O)(=O)c4cccc([N+](=O)[O-])c4)CC3)cc2)c1)C1CC1	inconclusive: 10 µM [activator, full curve, poor fit]

Compound	Potency
COc1ccccc1NC(=O)c1c(NCc2ccc(C)o2)sc2c1CCC(C)C2 (stereo not drawn)	inconclusive: 50.1 µM [activator, single point]
CCOC(=O)/C(C(=O)Nc1ccccc1Cl)=C1/NC(C)(C)Cc2ccccc21	inactive
Cc1ccc(NC(=O)CCc2nc3ccccc3c(=O)[nH]2)cc1S(=O)(=O)N1CCOCC1	inconclusive: 31.6 µM [activator, single point]
COc1ccc(/C=C2\SC(=S)N(C(Cc3ccccc3)C(=O)O)C2=O)cc1 (stereo not drawn)	inconclusive: 50.1 µM [activator, single point]
Cc1ccccc1C(=O)NCc1nc2cccnc2n1Cc1ccccc1	inactive
Cc1ncc(CC(=O)n2cc(C(=O)c3cc(F)ccc3O)cn2)s1	inconclusive: 28.2 µM [activator, single point]
COc1ccc2c(=O)c(-c3ccccc3)c(C)oc2c1	inactive
CCC(Sc1nnnn1-c1ccccc1)C(=O)Nc1nc2ccccc2s1 (stereo not drawn)	inconclusive: 7.08 µM [activator, partial curve, poor fit]
CC1CCN(S(=O)(=O)c2ccc(NC(=O)CN3C(=O)NC(C)(c4ccccc4)C3=O)cc2)CC1 (stereo not drawn)	inconclusive: 50.1 µM [activator, single point]
COc1ccc(Cn2c(CNS(=O)(=O)c3ccc4c(c3)CCCC4)nc3cccnc32)cc1	inconclusive: 39.8 µM [activator, single point]
COc1ccc(-c2nc3c4ccccc4ccn3c2Cc2ccsc2)cc1OC	inconclusive: 31.6 µM [activator, partial curve, poor fit]
Oc1ccccc1NCC(O)Cn1ccc2ccccc21 (stereo not drawn)	inconclusive: 14.1 µM [activator, partial curve]
C=CCn1c(SCC(=O)c2ccc(CNC(C)=O)o2)nc2scc(C3CC3)c2c1=O	inconclusive: 15.8 µM [activator, partial curve, poor fit]
COC(=O)[C@]12CCCCC=C1N(Cc1ccccc1)C(=O)[C@H](CC(=O)NCC13CC4CC(CC(C4)C1)C3)C2	inconclusive: 12.6 µM [activator, partial curve, poor fit]
Cc1cccc(-c2noc(CN(C(=O)c3ccccc3Cl)C(C)C)n2)c1	inactive
CCOc1ccccc1Nc1nnc(SCc2nnc(-c3cc(OC)c(OC)c(OC)c3)o2)s1	inconclusive: 28.2 µM [activator, partial curve]
O=C(CCCN1C(=O)/C(=C/c2ccccc2Cl)SC1=S)NNC(=O)c1ccccc1Cl	inconclusive: 25.1 µM [activator, partial curve, poor fit]
O=C(c1ccc2c(c1)OCCO2)N(Cc1cccnc1)c1nc2c(F)cccc2s1	inconclusive: 25.1 µM [activator, single point]
Cc1c(C(=O)NN)nn(-c2ccc(Cl)cc2)c(=O)c1C#N	inconclusive: 10 µM [activator, partial curve, poor fit]
COc1ccc(-c2nc3cc(NC(=O)Cc4ccc(OC)c(OC)c4)ccc3o2)cc1	inconclusive: 50.1 µM [activator, single point]
Cc1cccc(CNC(=O)C2CCN(c3nnc(-n4c(C)ccc4C)s3)CC2)c1	inactive
